This note sets out measurements from paper PMC6212790.

The list shows a part of the results. At the low end of the ranking the order means little.

The assay deals with T1, GST-Rok-C97-191 (UniProt O34857).
T1 sequence: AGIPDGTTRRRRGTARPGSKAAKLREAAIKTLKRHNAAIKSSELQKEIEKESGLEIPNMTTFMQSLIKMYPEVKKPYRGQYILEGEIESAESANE
The experiment in a line: protein binding microarray.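 Also: rank score from −0.5 (least bound) to 0.5 (best bound).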 Particulars: Rok is a gene silencer of Bacillus subtilis; high values mean tight binding; most listed sequences are background and not binding sites; double strand, one strand shown.
CCATGAGA: the binding signal was -0.0411 E-score. With CCGTATCG the figure was 0.044 E-score; with CCCTATAA, 0.208 E-score; with ACGGTGAC, 0.183 E-score. With ATTTGACC the figure was -0.0639 E-score; with GCAATGAC, -0.114 E-score; with TGTACACA, 0.092 E-score. For the sequence ACGAATAC, the binding signal was 0.164 E-score. Take AAGGCAGC: the binding signal came out at 0.0072 E-score. In turn, CGACTTAG gave a binding signal of -0.0242 E-score. With AGGAATAC the figure was -0.0617 E-score; with CATCCATC, -0.0668 E-score. On to ATCTTTGC, for which the binding signal was -0.0493 E-score. Then CCACTACC, with -0.0241 E-score. Then TCTAATAA, with 0.105 E-score; and AAAGAACC, with -0.0601 E-score. Then GACGGCGA, with -0.075 E-score; and AGCCACAT, with -0.216 E-score; and ATGATGCC, with -0.00555 E-score. On to ATCGAGCC, for which the binding signal was found to be 0.0749 E-score.

The sequence AAATTCCG came in with a binding signal of 0.125 E-score. For ACTGGATG, the binding signal is 0.000565 E-score. With AAACCGGT the figure was 0.0595 E-score; with ATACAGTG, 0.166 E-score; with GTATAGGA, 0.0447 E-score. For the sequence GGACCTAA, the binding signal is -0.0552 E-score. For the sequence ATGGCAGA, the binding signal was -0.151 E-score. Then GATAAATA, with 0.323 E-score; and CTTCACGA, with -0.287 E-score. The sequence GCCTAACC showed a binding signal of -0.229 E-score. With GGCATTGA the figure was -0.0187 E-score; with CCGGAGCA, -0.222 E-score. In turn, CATGGTAC came in with a binding signal of 0.229 E-score. With CATCGCCA the figure was -0.266 E-score; with GCTCACGA, -0.137 E-score. Then CTCACGAG, with -0.0336 E-score.

Turning to GCTTGAGA, the binding signal is -0.168 E-score. CAGATGGC registered a binding signal of -0.277 E-score. As for CCTGCTAC, the binding signal was 0.0117 E-score. The sequence ATCAAAAA had a binding signal of 0.0303 E-score.

AAGACGTC came in with a binding signal of -0.0333 E-score. The sequence CCAGCATA yielded a binding signal of 0.017 E-score. Sequence TGGGGAAA yielded a binding signal of 0.131 E-score.

GACTAAAC had a binding signal of 0.0134 E-score. Then ATCGTAGA, with 0.296 E-score; and AAACATTC, with 0.0952 E-score.

ACGGTAAT showed a binding signal of 0.276 E-score. The sequence GGTTCCGA registered a binding signal of 0.0637 E-score.

The sequence TCCGCACA returned a binding signal of -0.0678 E-score.

Sequence CGGAATGA returned a binding signal of 0.0343 E-score.

Sequence GCACTTTA displayed a binding signal of -0.0969 E-score. Then ACGGAGGG, with -0.206 E-score.

Regarding CGAACGCA, the binding signal was -0.00633 E-score.

CGTGGTTC gave a binding signal of -0.115 E-score. With ACAGCGAG the figure was -0.326 E-score; with AGTGAGAG, 0.109 E-score; with ATCAAGGG, -0.217 E-score.

Regarding GGTATCGA, the binding signal was -0.0093 E-score. Then AAACTAGC, with 0.337 E-score; and GCCAATAC, with -0.0999 E-score. As for CCGCGTAA, the binding signal is -0.0304 E-score. In turn, CGTCCTAC registered a binding signal of 0.00625 E-score.

GAACTCCC registered a binding signal of -0.159 E-score. In turn, GGTCGAGA had a binding signal of -0.114 E-score.

For the sequence GCCCCCTA, the binding signal is -0.207 E-score. Turning to CAGGCCTG, the binding signal is -0.382 E-score. Then CCTTCGCA, with -0.0514 E-score; and ATAAAGGG, with 0.076 E-score. ATGTGGTG had a binding signal of 0.153 E-score. In the case of CTGTGATC, the binding signal amounted to 0.136 E-score.

For the sequence ATTCCCTG, the binding signal was -0.196 E-score. With CGTGTTGA the figure was -0.21 E-score; with CGATGCGC, 0.00596 E-score; with AGTGCAAA, 0.0942 E-score. With ACTTTCAT, the binding signal was 0.0835 E-score. Then CTCAGGTA, with -0.00569 E-score; and AATCAAAG, with -0.0782 E-score. AATAGACA yielded a binding signal of 0.141 E-score. On to ACTTAGCG, for which the binding signal came out at 0.164 E-score.

Take ATCACCGC: the binding signal is -0.126 E-score. Then TATTTACA, with 0.235 E-score; and GCGCAGTA, with 0.0464 E-score; and CAGATTTC, with -0.0962 E-score.

Sequence AAAATGAG displayed a binding signal of 0.113 E-score. As for AACATCTG, the binding signal is -0.09 E-score. With AAAGCTAT the figure was 0.155 E-score; with CCATTGCA, -0.0294 E-score.

CAATATAA displayed a binding signal of 0.295 E-score.

In turn, CTACTTGC yielded a binding signal of 0.12 E-score. With CCCACCAA the figure was -0.109 E-score; with AGTGGGCC, -0.355 E-score; with GCAGTGGC, -0.345 E-score. As to ATTCTTGG, the binding signal came out at 0.0376 E-score. With CCTCACGC the figure was -0.157 E-score. With CCAGACCC the figure was -0.29 E-score; with AAAATTTG, 0.239 E-score; with CTCACTCC, -0.146 E-score. With CAATGATC the figure was -0.00687 E-score. For TTAATAAA, the binding signal stood at 0.244 E-score. GATCCTCA registered a binding signal of -0.19 E-score. With ACCGTGGG the figure was -0.292 E-score; with AACCTGCT, -0.177 E-score. For the sequence CAACATAC, the binding signal came out at 0.239 E-score. Then CGACCGCC, with -0.216 E-score; and TAGCCCGA, with 0.0451 E-score. As for TATTGTCA, the binding signal was 0.0895 E-score. As to AATTAATG, the binding signal was found to be 0.163 E-score. Regarding CCGTTTTA, the binding signal was 0.131 E-score. Then ACTATGAT, with 0.277 E-score; and AACGAATT, with 0.267 E-score; and CGTCTCTA, with -0.0417 E-score. GCGGTCAC: the binding signal is -0.118 E-score. Then ACAACAGT, with -0.0306 E-score; and TAAGGAAA, with -0.0965 E-score. With GTATGGAC the figure was 0.0275 E-score; with TATATGCA, 0.228 E-score; with ACAGCGAT, 0.0724 E-score.

With ATTGACTG, the binding signal turned out to be 0.0163 E-score. Then AGTTCAAT, with 0.126 E-score; and ACGGGAGT, with -0.117 E-score. Then CACAATTC, with -0.0205 E-score; and GCAAAACC, with -0.0329 E-score. With CCCGATAC the figure was 0.0751 E-score; with CCGCCTCA, -0.215 E-score.

In turn, CTCTATCC gave a binding signal of -0.0544 E-score. Consider AGGCGAGC, for which the binding signal is -0.185 E-score. Then GAACGCGC, with 0.0692 E-score; and TAGGTCGA, with 0.0576 E-score; and CGCACCGA, with -0.0321 E-score. With ATAGGGAA the figure was 0.167 E-score; with GCCTGGGA, -0.195 E-score; with ATGACCTC, -0.18 E-score.

With ACAGAAAG, the binding signal was determined as 0.155 E-score. Then ACTGCGTC, with -0.00428 E-score; and TAGGAATA, with 0.194 E-score; and CGCATGCA, with -0.138 E-score. With AATCCCCA the figure was -0.127 E-score; with ACAGGCAT, 0.0202 E-score; with CCCTACGG, -0.308 E-score.

The sequence AAGAGTTG registered a binding signal of -0.0342 E-score. Turning to CAGGTCCA, the binding signal was -0.386 E-score. With AATTTGCG the figure was 0.091 E-score; with GCTGTGCA, -0.174 E-score. Then ACAATCTG, with 0.115 E-score; and AATAATTC, with 0.269 E-score. With CATTCAAC the figure was -0.0345 E-score; with CTCGCCTA, 0.088 E-score; with ATCAATCG, -0.00803 E-score. The sequence ATACAGCG displayed a binding signal of -0.0288 E-score. With ACCACGAG the figure was -0.182 E-score; with ACGTACAG, 0.152 E-score; with CACCCTGC, -0.119 E-score. On to GAGGTTAA, for which the binding signal amounted to 0.0835 E-score. With CGAGCTAC the figure was -0.0457 E-score; with TATACGCA, 0.198 E-score; with GGCCCGCC, -0.312 E-score.

In turn, ATGTGGTA gave a binding signal of 0.205 E-score. In the case of CAAACCTG, the binding signal was -0.0953 E-score. With ACTACAAC the figure was 0.295 E-score; with AAGTTATC, 0.23 E-score; with ACACCTAG, 0.114 E-score.

Sequence CGGCTGAA gave a binding signal of -0.051 E-score. In turn, ACTTAATG had a binding signal of 0.125 E-score. Then CACTGGTA, with 0.15 E-score; and CCACACCC, with -0.252 E-score. With GACCTGGC the figure was -0.213 E-score; with CAAACGAA, 0.056 E-score. Turning to AACTGAAA, the binding signal turned out to be 0.0716 E-score. Then CGTGCGGC, with -0.21 E-score; and ATCTGTTA, with 0.108 E-score. With GATGACGC the figure was -0.271 E-score; with CGCGTTGC, -0.225 E-score.
